Results: PubChem BioAssay AID485313 (National Center for Advancing Translational Sciences (NCATS), 2010)
The whole screen tested about 320,000 compounds, of which about 7,600 (2.4%) were called active. The shares of active, inactive and inconclusive entries below differ from those in the screen. Calls come from the whole dose curve; as a rule, active = well fitted activation curve with a large enough effect; inconclusive = small, poorly fitted or top-dose-only effect; inactive = no such curve, though single readings can be large or run the other way. Potencies of inconclusive entries are left out as doubtful fits.

Experiment: qHTS Assay for NPC1 Promoter Activators; note: nearly all actives have a fitted effect of over 60% in size;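 for activation: reporter is driven by a mutant NPC1 promoter; % of control where 0% means no effect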
Conditions: Huh7 NPC1 promoter luciferase reporter, 24 h; series mostly up to 9.22 µM; activation: at the top concentration
Summary of the method: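 Readout is luciferase luminescence, reflecting NPC1 promoter activation in stably transfected Huh7 cells after 24 h compound exposure at 37 °C in reduced-serum medium with 10% FBS.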
Potency is the fitted concentration of half-maximal effect; tags give direction and shape of the fitted curve.

SMILES | Potency | activation
Cc1ccc(-c2cc(C(=O)Nc3cc(C)ccc3O)no2)cc1 | inconclusive [activator, partial curve] | 
C=CCc1cccc(/C=C/c2cc(=O)c3ccccc3[nH]2)c1O | inconclusive [activator, single point] | 
Cc1ccc(C(=O)OCC(=O)N2CCc3ccccc32)cc1 | inconclusive [activator, single point] | 
CSc1nc2ccc(NC(=O)c3ccccn3)cc2s1 | active: 447 nM | 
Cc1cc(NC(=O)C(C)Sc2nnc(NCc3ccco3)s2)no1 (stereo not given) |  | inactive: 0.896%
O=C1C2C(c3ccccc3)CC=CC2[C@H](c2cccc([N+](=O)[O-])c2)N1Cc1ccccc1 (stereo not given in full) |  | inactive: -6.77%
O=C(/C=C/c1c(F)cccc1Cl)Nc1ccncc1 |  | inactive: 29.2%
Cc1ccsc1C(=O)OCc1csc(-c2ccccc2)n1 | inconclusive [activator, partial curve] | 
COc1cccc(-c2cc(C(=O)NC3CCCC3)no2)c1 | active: 1410 nM | 
Cc1ccc2cc(NC(=O)Cc3ccccc3)ccc2n1 | active: 1410 nM | 
O=C(CNC(=O)c1ccccc1F)OCCCOC(=O)CNC(=O)c1ccccc1F |  | inactive: -0.953%
Cc1cccc(NC(=S)NC(=O)/C=C/c2ccco2)n1 | inconclusive [activator, partial curve] | 
CN(C(=O)c1ccco1)c1nnc(C23CC4CC(CC(C4)C2)C3)s1 | inconclusive [activator, single point] | 
Cc1ccc(-c2cn3c(=O)cc(C)[nH]c3n2)cc1 | active: 1580 nM | 
CSCC[C@H](NC(=O)[C@@H]1Cc2ccccc2CN1)C(=O)Nc1ccc2c(c1)OCCO2 | inconclusive [activator, single point] | 
COC(=O)Nc1nnc(-c2ccc(OC)cc2)s1 | active: 2510 nM | 
N#C/C(=C\c1ccc(N2CCOCC2)o1)c1nc2ccccc2[nH]1 | active: 708 nM | 
CC(=O)C1=C(O)C(=O)N(c2ccc(Br)cn2)C1c1ccc(F)cc1 (stereo not given) | active: 2240 nM | 
CCCNC(=O)c1cc(Cl)c(NC(=O)C2=CSCCO2)cc1OC | inconclusive [activator, partial curve] | 
Fc1ccc2nc(N3CCOCC3)sc2c1 | inconclusive [activator, partial curve] | 
c1ccc(Sc2ncnc3c2oc2ccccc23)cc1 | inconclusive [activator, single point] | 
CCCn1cccc(C(=O)Nc2ccc(OC)cc2)c1=O | inconclusive [activator, partial curve] | 
O=C(/C=C/c1cc2ccccc2o1)c1ccccc1O | inconclusive [activator, single point] | 
COc1ccc(CNC(=O)Cn2cccc2C(=O)c2ccccc2C)cc1 | inconclusive [activator, single point] | 
O=C(CSc1nnc(NC(=O)c2cccc(Br)c2)s1)NCC1CCCO1 (stereo not given) | inconclusive [activator, partial curve] | 

SMILES | Potency | activation
CC(NCC(O)COCCC12CC3CC(CC(C3)C1)C2)c1ccccc1 (stereo not given) |  | inactive: -0.26%
CN1/C(=C/C(=O)c2ccc(Cl)cc2)Sc2cc3c(cc21)OCO3 | inconclusive [activator, single point] | 
COc1ccc(-c2nc3ccccc3c(=O)[nH]2)cc1 | active: 1410 nM | 
COC(=O)c1cc(Nc2cc(C)c3c(O)cccc3n2)cc(C(=O)OC)c1 |  | inactive: 9.53%
CC1(C)CC(=O)c2sc(NC(=O)c3ccco3)nc2C1 | inconclusive [activator, partial curve] | 
O=[N+]([O-])c1ccc(NCc2ccc(Cl)cc2)nc1 | inconclusive [activator, single point] | 
CCCc1cnc(N2CCN(C(=S)NC)CC2)nc1 | inconclusive [activator, partial curve] | 
CCOc1ccc(N(CC(=O)Nc2cccc(OC)c2)S(C)(=O)=O)cc1 | inconclusive [activator, partial curve] | 
COc1ccccc1/C=C/c1ccc2cccc(O)c2n1 | inconclusive [activator, single point] | 
Cc1cc(C(=O)Nc2ccccc2C(=O)O)c(C)o1 |  | inactive: -1.81%
CCOc1ccc(OCc2ccc(C(=O)N3CCCC3)o2)cc1 | inconclusive [activator, partial curve] | 
COc1ccccc1C(=O)NNC(=O)c1cccc(F)c1 | inconclusive [activator, single point] | 
COC(=O)c1ccc(COc2cc(C)ccc2C)o1 |  | inactive: 28.7%
CCc1ccc(NC(=O)c2cnn3ccccc23)cc1 | active: 316 nM | 
CCOc1ccc(N/C=C/C(=O)c2ccc(OC)cc2)c([N+](=O)[O-])c1 | active: 398 nM | 
Cc1nc2ccccc2c(=O)n1/N=C/c1ccccc1Cl | inconclusive [activator, single point] | 
C/C(=N\NC(=O)c1cc(Br)ccc1O)c1ccccn1 | inconclusive [activator, partial curve] | 
COc1ccc(CNC(=O)CNC(=O)CNS(=O)(=O)c2ccc(C)c(C)c2)cc1 |  | inactive: 1.11%
COC(=O)c1ccc(C(=O)N=c2sccn2C)cc1 | active: 2820 nM | 
CCC(=O)NCCc1nc2cc(NC(=O)c3ccc(Cl)cc3)ccc2n1C | active: 1780 nM | 
CN(C)S(=O)(=O)c1cccc(C(=O)Nc2cc(Cl)ccc2O)c1 | inconclusive [activator, partial curve] | 
Nc1ccc(C(=O)Nc2cccc(N)c2)cc1 | inconclusive [activator, partial curve] | 
Cc1ccc(Nc2nc3ccccc3n3nnnc23)cc1 | inconclusive [activator, partial curve] | 
COc1ccc(-c2cc(C(=O)N3CCN(c4ccccn4)CC3)c3ccccc3n2)cc1 | inconclusive [activator, single point] | 
O=C(N/N=C\c1ccc(F)cc1)c1ccc(F)cc1 | inconclusive [activator, partial curve] | 
